This note sets out measurements from publication PMC9880023.

Protein sequences, listed by entry. Tags and fused reporters are not part of them. Residues count along the entry.
UniProt P0DI97, residues 47-468: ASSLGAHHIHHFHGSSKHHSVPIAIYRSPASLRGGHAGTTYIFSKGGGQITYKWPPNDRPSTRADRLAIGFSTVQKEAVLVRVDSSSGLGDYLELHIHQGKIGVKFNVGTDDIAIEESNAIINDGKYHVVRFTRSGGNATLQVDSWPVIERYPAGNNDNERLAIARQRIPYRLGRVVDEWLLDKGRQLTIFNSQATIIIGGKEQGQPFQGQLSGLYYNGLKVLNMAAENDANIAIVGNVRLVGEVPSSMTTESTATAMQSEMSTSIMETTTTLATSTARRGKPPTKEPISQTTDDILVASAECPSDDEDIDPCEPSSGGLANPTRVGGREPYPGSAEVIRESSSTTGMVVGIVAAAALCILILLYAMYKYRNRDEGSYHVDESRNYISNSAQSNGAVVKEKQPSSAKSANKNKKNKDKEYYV
UniProt E9PUN2, residues 47-660: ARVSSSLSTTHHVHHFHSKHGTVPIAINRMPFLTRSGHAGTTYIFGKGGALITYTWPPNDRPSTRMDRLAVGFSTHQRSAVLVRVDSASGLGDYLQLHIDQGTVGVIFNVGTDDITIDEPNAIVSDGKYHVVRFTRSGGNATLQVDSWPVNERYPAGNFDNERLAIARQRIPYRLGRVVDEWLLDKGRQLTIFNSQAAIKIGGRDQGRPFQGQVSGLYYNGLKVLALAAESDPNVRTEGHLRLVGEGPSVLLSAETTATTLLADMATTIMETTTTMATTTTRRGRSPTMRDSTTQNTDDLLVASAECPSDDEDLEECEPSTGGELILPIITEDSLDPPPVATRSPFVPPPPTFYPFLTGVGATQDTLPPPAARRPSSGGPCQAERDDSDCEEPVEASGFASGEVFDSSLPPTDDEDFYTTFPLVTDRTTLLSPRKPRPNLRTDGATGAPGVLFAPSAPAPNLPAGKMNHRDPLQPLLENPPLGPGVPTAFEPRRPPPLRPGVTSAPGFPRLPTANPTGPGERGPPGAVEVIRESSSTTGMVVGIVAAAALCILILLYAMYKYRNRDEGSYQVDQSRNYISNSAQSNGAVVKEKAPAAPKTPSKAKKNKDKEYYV
UniProt Q8C985, residues 36-567: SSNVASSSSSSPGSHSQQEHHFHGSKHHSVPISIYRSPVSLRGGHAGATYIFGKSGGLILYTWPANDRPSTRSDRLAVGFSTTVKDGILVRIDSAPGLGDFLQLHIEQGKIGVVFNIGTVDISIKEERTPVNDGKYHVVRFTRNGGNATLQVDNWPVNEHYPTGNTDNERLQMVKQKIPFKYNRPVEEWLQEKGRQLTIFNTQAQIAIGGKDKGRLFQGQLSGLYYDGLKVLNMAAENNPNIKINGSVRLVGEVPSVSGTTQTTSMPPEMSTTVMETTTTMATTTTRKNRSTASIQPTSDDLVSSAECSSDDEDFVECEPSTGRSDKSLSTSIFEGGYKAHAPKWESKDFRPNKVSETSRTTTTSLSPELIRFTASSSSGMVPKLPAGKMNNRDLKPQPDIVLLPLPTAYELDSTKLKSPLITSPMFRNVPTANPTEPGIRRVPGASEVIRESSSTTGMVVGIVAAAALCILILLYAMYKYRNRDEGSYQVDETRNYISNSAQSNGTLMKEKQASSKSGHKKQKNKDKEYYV
UniProt Q9EPR5, residues 52-1077: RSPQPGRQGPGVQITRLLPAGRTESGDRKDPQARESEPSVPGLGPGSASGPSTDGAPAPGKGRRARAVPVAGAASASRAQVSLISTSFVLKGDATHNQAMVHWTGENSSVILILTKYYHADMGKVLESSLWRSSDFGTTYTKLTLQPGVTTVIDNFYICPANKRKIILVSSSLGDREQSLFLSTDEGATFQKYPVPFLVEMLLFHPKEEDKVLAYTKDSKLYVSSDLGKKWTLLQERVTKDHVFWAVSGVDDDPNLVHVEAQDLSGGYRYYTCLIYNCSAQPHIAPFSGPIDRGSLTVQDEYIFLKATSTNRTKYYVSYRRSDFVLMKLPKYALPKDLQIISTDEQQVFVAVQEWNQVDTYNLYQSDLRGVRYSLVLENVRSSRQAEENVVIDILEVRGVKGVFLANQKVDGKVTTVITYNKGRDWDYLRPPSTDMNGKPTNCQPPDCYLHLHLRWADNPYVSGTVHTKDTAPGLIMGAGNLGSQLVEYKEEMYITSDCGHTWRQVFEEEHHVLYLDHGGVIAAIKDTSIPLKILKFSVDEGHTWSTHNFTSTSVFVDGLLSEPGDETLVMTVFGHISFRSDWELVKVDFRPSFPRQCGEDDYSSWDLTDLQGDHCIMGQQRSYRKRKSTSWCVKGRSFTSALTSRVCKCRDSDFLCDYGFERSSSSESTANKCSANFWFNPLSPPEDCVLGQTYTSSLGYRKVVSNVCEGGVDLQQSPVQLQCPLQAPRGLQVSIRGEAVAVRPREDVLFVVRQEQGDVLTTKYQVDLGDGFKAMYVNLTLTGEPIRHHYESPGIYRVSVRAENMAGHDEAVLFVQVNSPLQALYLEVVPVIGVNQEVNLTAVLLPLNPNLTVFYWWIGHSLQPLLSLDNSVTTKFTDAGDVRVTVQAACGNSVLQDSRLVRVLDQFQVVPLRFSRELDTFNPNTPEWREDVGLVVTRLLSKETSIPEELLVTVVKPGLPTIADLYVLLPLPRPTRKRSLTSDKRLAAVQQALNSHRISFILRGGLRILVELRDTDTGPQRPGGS

Where two headings read alike, the source gives them in different places. No constants are given. Whether binding was seen depends on the method and setting. Some entries that bind do so weakly or less than the wild type. For part of these data: Tags and fused reporters may be left off the sequences shown.

Common to all, as to test: cell surface-binding assay (fluorescence microscopy); purified Fc-fusion protein (SorCS1-Fc and SorCS2-Fc at 1 µM) applied to transfected COS-7 cells in ECS/BSA for 1 h at 4°C; bound Fc immunostained without permeabilisation, normalised to surface HA; only the binder purified
The target of assay [1] is HA-NRX1βS4(+), expressed on COS-7 cells (UniProt P0DI97).
Assay [2] deals with HA-NRX2βS4(+), expressed on COS-7 cells (UniProt E9PUN2).
Assay [3] deals with HA-NRX3βS4(+), expressed on COS-7 cells (UniProt Q8C985).
Assay [4] concerns the target HA-NRX1βS4(+), expressed on COS-7 cells (UniProt P0DI97). The source holds these as a separate data set.
For assay [5], the target named is HA-NRX2βS4(+), expressed on COS-7 cells (UniProt E9PUN2). The source holds these as a separate data set.
Assay [6] has as its target HA-NRX3βS4(+), expressed on COS-7 cells (UniProt Q8C985). This is another data set of the same source.

Regarding “SorCS2 ectodomain fused to human IgG Fc (SorCS2-Fc) (from UniProt Q9EPR5 52-1077) (Fc fusion)”, the binding result is on record as “binds” in assay [1], “binds weakly” in assay [2] and “binds weakly” in assay [3].

B1: SorCS1 ectodomain tagged with human immunoglobulin Fc region (SorCS1-Fc) (Fc fusion, UniProt Q9JLC4 34-1098)
chain: SLSCCPPQHPSSTPRRTLTPRGFPHPGPLGRAPATPPPLFMRPLFAVAPGDRALFLERAGGSRVSVATAARSGRRRRSGTEPEKIEPGEGASRSRRDMLKDGGQQGLGTGARDPGKATRFRMEELRLTSTTFALTGDSAHNQAMVHWSGHNSSVILILTKLYDYNLGSITESSLWRSTDYGTTYEKLNDKVGLKTILSYLYVCPTNKCKIMLLTDPEIESSLLISSDEGATYQKYRLNFYLQSLLFHPKQEDWILAYSQDQKLYSSAEFGRRWQLIQESVVPNRFYWSVMGSSKEPDLVHLEARTVDGHSIYLTCRMQNCTEANRNKPFPGYIDPDSLIVQDDYVFVQLTSGGRPHYYVSYRRSPFAQMKLPKYALPKDMHVISTDENQVFAAVQEWNQNDTYNLYISDTRGVYFTLALENVRSSRGPEGNVMIDLYEVAGIKGMFLANKKIDNQVKTFITYNKGRDWRLLQAPDADLRGDPVHCLLPYCSLHLHLKVSENPYTSGIIASRDTAPSIIVASGNIGSELSDSDISMFVSSDAGNTWRQIFEEEHSILYLDQGGVLVAMKHTSLPIRHLWLSFDEGRSWSKYSFTSIPLFVDGVLGEPGEETLIMTVFGHFSHRSEWQLVKVDYKSIFDRRCAEEDYRPWQLHSQGEACIMGAKRIYKKRKSERKCMQKYAGAMESEPCVCTEADFDCDYGYERHSNGQCLPAFWFNPSSLSKDCSLGQSYLNSAGYRKVVSNNCTDGVREQYTAKPQKCPGKAPRGLRIVTADGKLTAEQGHNVTLMVQLEEGDVQRTLIQVDFGDGIAVSYVNLSSMEDGIKHVYQNVGIFRVTVQVDNSLGSDSAVLYLHVTCPLEHVHLSLPFVTTKNKEVNATAVLWPSQVGTLTYVWWYGNNTEPLITLEGSISFKFTSEGMNTITVQVSAGNAILQDTKTIAVYEEFRSLRLAFSPNLDDYNPDIPEWRRDISRVIKKSLVEATGIPSQHILVAVLPGLPTAAELFVLPYQDGTRENKRSPEDLEQISEVLIHKLNQNLVHFELKPGVQVLVHAAHLTAAPLVDLTPTHS
Take B1: the binding result was “binds” in assay [4], “binds” in assay [5] and “no binding (tested: 1 µM)” in assay [6].
